Measured values as given in PubChem BioAssay AID2546 (National Center for Advancing Translational Sciences (NCATS), 2010).
The campaign covered roughly 310,000 compounds. About 11,000 (3.5%) were called active. The inconclusive results got no clear call from the source; some entries with a clear call stand among them for comparison. Calls follow the shape of the dose curve; as a rule, active = well fitted inhibition curve with a large enough effect; inconclusive = small, poorly fitted or top-dose-only effect, or effect the other way; inactive = flat fitted curve, though single readings scatter. No potency is given beside an inconclusive call; the fits are too rough.

Assay: VP16 counterscreen qHTS for inhibitors of ROR gamma transcriptional activity;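 also: Gal4-VP16 expression switched on by copper sulfate through the metallothionein promoter; nearly all actives have a fitted effect of over 50% in size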
Conditions: Drosophila S2 Gal4-VP16 UAS-luciferase, luminescence, 20 h; activity, negative = inhibition: at 53.6 µM (top of the series)
% is scaled to controls: 0 for no effect and ±100 for the full control effect; potency is read from the fitted curve at half-maximal effect; tags tell the direction and shape of the fitted curve.

SMILES | Potency | activity, negative = inhibition
Cc1ccc(C(=O)Nc2ccc(C(=O)/C=C/c3cccs3)cc2)cc1 | inconclusive [inhibitor, partial curve] | 
COc1ccc(Cl)cc1C(=O)NC(=S)Nc1cc(-c2nc3ccccc3[nH]2)ccc1C |  | inactive: 9.16%
Fc1cccc(/C=N/n2c(C3CCCCC3)n[nH]c2=S)c1 | active: 8.91 µM | 
N#CC1=C(S)N(c2ccccc2)C(c2ccc(-c3ccc(Cl)c(Cl)c3)o2)NC1=O (stereo unspecified) | inconclusive [inhibitor, single point] | 
CCc1ccc(C(=O)/C=C2\Sc3ccccc3NC2=O)cc1 | inconclusive [inhibitor, full curve, poor fit] | 
COc1ccc(-c2cc(C(=O)N3CCN(C(=O)c4ccco4)CC3)[nH]n2)cc1 |  | inactive: -12.1%
O=[N+]([O-])c1cccc(-c2ccc3nnc(SCc4ccccn4)n3n2)c1 |  | inactive: 7.27%
CC(=O)Nc1ccc(S(=O)(=O)N(CC(=O)Nc2cc(C)on2)Cc2ccc(F)cc2)cc1 | inconclusive [inhibitor, single point] | 
O=C(NNc1nc2cc3c(cc2s1)OCO3)c1ccccc1 | inconclusive [inhibitor, single point] | 
COc1ccc(CNC(=S)N/N=C(/C)c2ccccc2)cc1 | inconclusive [inhibitor, single point] | 
Nc1nc2ccccc2n1/N=C/c1ccc(-c2ccccc2)o1 | inconclusive [inhibitor, single point] | 
O=C(Nc1ccc(N2CCN(C(=O)c3ccccc3)CC2)c(Cl)c1)c1ccco1 | inconclusive [inhibitor, single point] | 
COc1ccc(O)c(/C=N/Nc2nc3ccccc3[nH]2)c1 | inconclusive [activator, single point] | 
COc1ccccc1NC(CC(=O)c1ccccc1)C(=O)OCC(=O)c1ccc(C)c(C)c1 (stereo unspecified) | inconclusive [activator, partial curve] | 
Cc1cccc(C(=O)n2c(=S)nc3ccccn32)c1 | active: 3.16 µM | 
CC1=CC2=NC(=O)/C(=C/c3cccn3Cc3ccccc3)C(=N)N2O1 | inconclusive [inhibitor, single point] | 
O=[N+]([O-])c1cccc(-c2ccc(/C=N/NC(=S)Nc3ccccc3)o2)c1 | active: 2.51 µM | 
CCN(CC)S(=O)(=O)c1ccc(OC)c(NC(=S)Nc2cccc(C)c2C)c1 | inconclusive [inhibitor, single point] | 
Cc1cccc(NC(=O)Nc2ccc([N+](=O)[O-])cc2)n1 | inconclusive [activator, full curve, poor fit] | 
O=C(CCN1CCC(c2ccccc2)C1)c1cccs1 (stereo unspecified) | inconclusive [inhibitor, single point] | 
Cc1ccc(Sc2cc(C(F)(F)F)nc(N(C)C)n2)cc1 | inconclusive [inhibitor, single point] | 
CC(=O)c1cccc(NC(=S)N2c3ccccc3CC2C)c1 (stereo unspecified) |  | inactive: 1.39%
Cc1ccc(S(=O)(=O)NC(=O)NC(C)Cc2ccccc2)cc1 (stereo unspecified) | inconclusive [activator, single point] | 

SMILES | Potency | activity, negative = inhibition
COCCCN=Cc1c(-c2ccccc2)[nH]n(-c2nc3ccccc3s2)c1=O | inconclusive [inhibitor, single point] | 
O=C(Nc1nnc(COc2ccc(Cl)cc2)s1)C1CCCO1 (stereo unspecified) |  | inactive: 10%
CCCC(=O)Nc1ccc(Sc2ccc([N+](=O)[O-])cc2)cc1 | inconclusive [inhibitor, single point] | 
O=c1[nH]c(N/N=C/c2ccccc2Br)nnc1-c1ccccc1 | inconclusive [inhibitor, single point] | 
Cc1ccc(CS(=O)Cc2ccc(C(=O)NCc3ccccc3Br)o2)cc1 (stereo unspecified) |  | inactive: -0.488%
CN(CCC#N)C(=S)NC(=O)c1ccc(S(=O)(=O)N2CCOCC2)cc1 | inconclusive [inhibitor, single point] | 
COc1ccc(CNC(=O)C(c2cccs2)N(Cc2ccco2)C(=O)Cc2cccs2)cc1 (stereo unspecified) |  | inactive: -29.5%
Nc1nc(Nc2ccccc2)nc2ccccc12 | inconclusive [inhibitor, full curve, poor fit] | 
CC(=O)c1c(N2CCN(Cc3ccc4c(c3)OCO4)CC2)nc(=S)n(-c2ccccc2)c1C |  | inactive: -10.3%
CCOCC(=O)Nc1nnc(C2CCCCC2)s1 | inconclusive [activator, full curve, poor fit] | 
Cc1ccc(-c2noc(C3CCCN(C(=O)c4ccccc4Br)C3)n2)cc1 (stereo unspecified) | inconclusive [inhibitor, single point] | 
Cn1c(N)c(C(=O)NCc2ccccc2)sc1=S |  | inactive: 20.2%
COc1cccc(CN2CCN(c3ncccn3)CC2)c1OC |  | inactive: -5.1%
CCCCn1nc(NC(=O)c2cccs2)c2cc3cc(OC)ccc3nc21 |  | inactive: 1.24%
CCN1C(=O)CS/C1=N\S(=O)(=O)c1ccc(Cl)cc1 |  | inactive: -6.79%
O=C1C([N+](=O)[O-])=C(O)c2cccc3cccc1c23 | active: 17.8 µM | 
COc1ccc(/C=C/CN2CCCC(CO)(Cc3cccc(Cl)c3)C2)cc1 (stereo unspecified) | inconclusive [inhibitor, single point] | 
C=CCN1C(=O)/C(=c2\sc3nc(=O)c(Cc4ccc(OC)c(OC)c4)nn3c2=O)c2ccccc21 | inconclusive [inhibitor, partial curve] | 
CCOC(=O)c1cc2c(ccn2C)n1CC(=O)N(Cc1ccccc1)c1ccccc1 | inconclusive [inhibitor, single point] | 
Cc1ccc(Nc2c(-c3ccc(N4CCOCC4)cc3)nc3cnccn23)cc1 |  | inactive: 14.2%
O=C(NC(=S)N1CCCc2ccccc21)c1ccco1 | inconclusive [inhibitor, single point] | 
COc1ccc(-c2cc(-c3ccc(OC)cc3)[nH]n2)cc1 | active: 2 µM | 
CCN(CC)S(=O)(=O)c1ccc(N2CCOCC2)c(NC(=O)CCC2CCCCC2)c1 | inconclusive [inhibitor, single point] | 
